{"source": "the supplement of paper PMC9135407", "test_system": "primary human hepatic stellate cells (donor 1)", "assay": "scaled lipid accumulation score (0 = DMSO-like, 1 = nortriptyline-like); higher = stronger HSC inactivation (lipid re-accumulation), active = hit call of the paper", "conditions": "48 h", "description": "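Primary lipid accumulation screen in primary human hepatic stellate cell myofibroblasts (donor 1, passage 8) in 384-well plates. 100 nL of library compound was pin-transferred into 30 µL medium in duplicate, and cells were treated for 48 h. The 'Scaled' score combines distance from plate baseline, toxicity and reproducibility penalties, and is normalised to nortriptyline (positive) and DMSO (negative) controls on each plate. A hit is defined as scaled >0.85 or among the top 3 wells per plate.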", "key": {"[1]": {"conditions": "library stock concentration: 1 mM"}, "[2]": {"conditions": "library stock concentration: 10 mM"}, "[3]": {"conditions": "library stock concentration: 3.33 mM"}, "[4]": {"conditions": "library stock concentration: 4.8 mM"}, "[5]": {"conditions": "library stock concentration: 2 mM"}, "[6]": {"conditions": "library stock concentration: 400 uM"}}, "note": "Where “and” joins values, the source holds several entries; their conditions need not be identical. Identical values can stand only once. Counter-ions that a name gives are not always drawn. Hit rate of the full screen: of about 5,800 compounds, about 620 (11%) showed activity.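 Rule for the calls: active = score above a cut-off or among the top three wells of a plate; in these data no inactive exceeds 0.85.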 This is a selection; strong and weak results do not stand in their true shares."}
{"smiles": "CCCCC[C@H](O)/C=C/[C@@H]1[C@@H](CCCCCCC(=O)O)[C@H](O)C[C@@H]1O", "note": "[11.beta.-Prostaglandin F1.beta.]", "values": [{"measurement": "scaled lipid accumulation score", "setting": "[1]", "value": "inactive: ≤ 0"}]}
{"smiles": "CS(=O)(=O)O.Cc1ccc(NC(=O)c2ccc(CN3CCN(C)CC3)cc2)cc1Nc1nccc(-c2cccnc2)n1", "note": "[Imatinib Mesylate (STI571)]", "values": [{"measurement": "scaled lipid accumulation score", "setting": "[2]", "value": "active: 1.1"}]}
{"smiles": "CCCc1c(OCCCCc2nnn[nH]2)ccc(C(C)=O)c1O", "values": [{"measurement": "scaled lipid accumulation score", "setting": "[1]", "value": "inactive: ≤ 0 and inactive: ≤ -0.021"}, {"measurement": "scaled lipid accumulation score", "setting": "[2]", "value": "inactive: 0.011"}]}
{"smiles": "CC1CCc2c(N3CCC(O)CC3)c(F)cc3c(=O)c(C(=O)O)cn1c23", "note": "(centres undefined) [Nadifloxacin]", "values": [{"measurement": "scaled lipid accumulation score", "value": "inactive: ≤ 0"}, {"measurement": "scaled lipid accumulation score", "setting": "[3]", "value": "inactive: 0.031"}, {"measurement": "scaled lipid accumulation score", "setting": "[2]", "value": "inactive: 0.009"}]}
{"smiles": "CCCCCCCCCCCCCCCC(=O)OC[C@H](COP(=O)([O-])OCC[N+](C)(C)C)OC(=O)CCCCCCCC(=O)/C=C/C(=O)O", "values": [{"measurement": "scaled lipid accumulation score", "setting": "[1]", "value": "inactive: 0.026"}]}
{"smiles": "CCCCCC(=O)/C=C/C=O", "note": "[4-oxo-2-Nonenal]", "values": [{"measurement": "scaled lipid accumulation score", "setting": "[1]", "value": "inactive: ≤ 0"}]}
{"smiles": "NCC=CC(=O)O", "note": "(stereo in doubt) [cis-4-Aminocrotonic acid]", "values": [{"measurement": "scaled lipid accumulation score", "setting": "[2]", "value": "inactive: ≤ 0"}]}
{"smiles": "CC[C@@H]1C(=O)N(C)c2cnc(Nc3ccc(C(=O)N[C@H]4CC[C@H](N5CCN(CC6CC6)CC5)CC4)cc3OC)nc2N1C(C)C", "note": "[Volasertib (BI 6727)]", "values": [{"measurement": "scaled lipid accumulation score", "setting": "[3]", "value": "active: 0.97"}, {"measurement": "scaled lipid accumulation score", "setting": "[2]", "value": "active: 0.916"}]}
{"smiles": "Cc1cc(=O)n(-c2ccccc2)n1C", "note": "[Antipyrine]", "values": [{"measurement": "scaled lipid accumulation score", "value": "inactive: 0.017"}, {"measurement": "scaled lipid accumulation score", "setting": "[3]", "value": "inactive: ≤ 0"}, {"measurement": "scaled lipid accumulation score", "setting": "[2]", "value": "inactive: ≤ -0.001 and inactive: ≤ 0"}, {"measurement": "scaled lipid accumulation score", "setting": "library stock concentration: 10.6 mM", "value": "inactive: ≤ -0.001"}]}
{"smiles": "Clc1ccc(COC(Cn2ccnc2)c2ccc(Cl)cc2Cl)c(Cl)c1", "note": "(centres undefined)", "values": [{"measurement": "scaled lipid accumulation score", "setting": "[2]", "value": "inactive: 0.375"}]}
{"smiles": "Clc1ccc(COC(Cn2ccnc2)c2ccc(Cl)cc2Cl)c(Cl)c1", "note": "(centres undefined) [Miconazole]", "values": [{"measurement": "scaled lipid accumulation score", "value": "inactive: 0.144"}, {"measurement": "scaled lipid accumulation score", "setting": "[3]", "value": "inactive: 0.046"}, {"measurement": "scaled lipid accumulation score", "setting": "[4]", "value": "inactive: 0.049"}, {"measurement": "scaled lipid accumulation score", "setting": "[2]", "value": "inactive: ≤ 0"}]}
{"smiles": "Clc1ccc(COC(Cn2ccnc2)c2ccc(Cl)cc2Cl)c(Cl)c1", "note": "(centres undefined) [Miconazole nitrate]", "values": [{"measurement": "scaled lipid accumulation score", "setting": "[2]", "value": "inactive: ≤ 0"}]}
{"smiles": "Clc1ccc(COC(Cn2ccnc2)c2ccc(Cl)cc2Cl)c(Cl)c1", "note": "(centres undefined) [Miconazole Nitrate]", "values": [{"measurement": "scaled lipid accumulation score", "setting": "[3]", "value": "inactive: 0.004"}, {"measurement": "scaled lipid accumulation score", "setting": "[2]", "value": "inactive: 0.377"}]}
{"smiles": "CCCN(CCc1cccs1)[C@H]1CCc2c(O)cccc2C1", "note": "[Rotigotine]", "values": [{"measurement": "scaled lipid accumulation score", "setting": "[3]", "value": "inactive: ≤ 0"}, {"measurement": "scaled lipid accumulation score", "setting": "[2]", "value": "inactive: 0.456"}]}
{"smiles": "CC(=O)[C@H]1CC[C@H]2[C@@H]3CC=C4C[C@@H](OS(=O)(=O)O)CC[C@]4(C)[C@H]3CC[C@]12C", "note": "[Pregnenolone sulfate sodium]", "values": [{"measurement": "scaled lipid accumulation score", "setting": "[2]", "value": "inactive: ≤ 0"}]}
{"smiles": "CCCCCCCCCCCCCCCC(=O)OC[C@H](COP(=O)([O-])OCC[N+](C)(C)C)OC(=O)CCCC(=O)/C=C/C(=O)O", "values": [{"measurement": "scaled lipid accumulation score", "setting": "[1]", "value": "inactive: 0.034"}]}
{"smiles": "N#C/C(=C\\c1ccc(O)c(O)c1)C(=O)c1ccc(O)c(O)c1", "note": "[Tyrphostin AG 538]", "values": [{"measurement": "scaled lipid accumulation score", "setting": "[2]", "value": "inactive: ≤ 0"}]}
{"smiles": "NC12CC3CC(CC(C3)C1)C2", "note": "[Symmetrel]", "values": [{"measurement": "scaled lipid accumulation score", "setting": "[2]", "value": "inactive: 0.158"}]}
{"smiles": "NC12CC3CC(CC(C3)C1)C2", "note": "[Amantadine hydrochloride]", "values": [{"measurement": "scaled lipid accumulation score", "setting": "[2]", "value": "inactive: 0.29 and inactive: 0.659"}, {"measurement": "scaled lipid accumulation score", "setting": "library stock concentration: 10.7 mM", "value": "inactive: 0.031"}]}
{"smiles": "NC12CC3CC(CC(C3)C1)C2", "note": "[Adamantamine fumarate]", "values": [{"measurement": "scaled lipid accumulation score", "value": "inactive: 0.029"}]}
{"smiles": "NC12CC3CC(CC(C3)C1)C2", "note": "[Amantadine HCl]", "values": [{"measurement": "scaled lipid accumulation score", "setting": "[3]", "value": "inactive: ≤ 0"}, {"measurement": "scaled lipid accumulation score", "setting": "[2]", "value": "inactive: 0.042"}]}
{"smiles": "CCCCCCCCCCCCCCCC(=O)NCCO", "note": "[Palmitoylethanolamide]", "values": [{"measurement": "scaled lipid accumulation score", "setting": "[2]", "value": "inactive: 0.03"}]}
{"smiles": "CCCCCCCCCCCCCCCC(=O)NCCO", "note": "[Palmitoyl Ethanolamide]", "values": [{"measurement": "scaled lipid accumulation score", "setting": "[1]", "value": "inactive: ≤ 0"}]}
{"smiles": "CCCCCCCCCCCCCCCC(=O)NCCO", "values": [{"measurement": "scaled lipid accumulation score", "setting": "[2]", "value": "inactive: ≤ 0"}]}
{"smiles": "CCCCCCCCCCCCCCCC(=O)NCCO", "note": "[Palmitylethanolamide]", "values": [{"measurement": "scaled lipid accumulation score", "setting": "[1]", "value": "inactive: ≤ -0.021"}]}
{"smiles": "C[C@@H](Oc1cc(-n2cnc3ccc(CN4CCN(C)CC4)cc32)sc1C(N)=O)c1ccccc1C(F)(F)F", "values": [{"measurement": "scaled lipid accumulation score", "setting": "[5]", "value": "active: 0.915"}, {"measurement": "scaled lipid accumulation score", "setting": "[2]", "value": "active: 1.2"}]}
{"smiles": "CN1CCN(C2=Nc3cc(Cl)ccc3Nc3ccccc32)CC1", "note": "[Clozapine]", "values": [{"measurement": "scaled lipid accumulation score", "setting": "[3]", "value": "inactive: 0.105"}, {"measurement": "scaled lipid accumulation score", "setting": "library stock concentration: 6.1 mM", "value": "inactive: 0.429 and inactive: 0.648"}, {"measurement": "scaled lipid accumulation score", "setting": "[2]", "value": "inactive: 0.755 and inactive: 0.578"}, {"measurement": "scaled lipid accumulation score", "setting": "library stock concentration: 15.3 mM", "value": "inactive: 0.769"}]}
{"smiles": "CO[C@@H](C(=O)N1Cc2[nH]nc(NC(=O)c3ccc(N4CCN(C)CC4)cc3)c2C1)c1ccccc1", "values": [{"measurement": "scaled lipid accumulation score", "setting": "[6]", "value": "inactive: ≤ -0.005"}, {"measurement": "scaled lipid accumulation score", "setting": "[5]", "value": "inactive: ≤ -0.005"}, {"measurement": "scaled lipid accumulation score", "setting": "[3]", "value": "inactive: 0.533"}, {"measurement": "scaled lipid accumulation score", "setting": "[2]", "value": "inactive: 0.779"}]}
{"smiles": "Cc1c(Cc2ccc3ccccc3n2)c2cc(F)ccc2n1CC(=O)O", "values": [{"measurement": "scaled lipid accumulation score", "setting": "[3]", "value": "inactive: ≤ 0"}, {"measurement": "scaled lipid accumulation score", "setting": "[2]", "value": "inactive: ≤ 0"}]}
{"smiles": "C=CC(=O)N1CCC(Oc2cc3c(Nc4ccc(Cl)c(Cl)c4F)ncnc3cc2OC)CC1", "note": "[Poziotinib]", "values": [{"measurement": "scaled lipid accumulation score", "setting": "library stock concentration: 80 uM", "value": "inactive: 0.111"}, {"measurement": "scaled lipid accumulation score", "setting": "[6]", "value": "inactive: 0.281"}, {"measurement": "scaled lipid accumulation score", "setting": "[5]", "value": "inactive: 0.059"}, {"measurement": "scaled lipid accumulation score", "setting": "[2]", "value": "inactive: 0.72"}]}
{"smiles": "CCN(CCO)CCCOc1ccc2c(Nc3cc(CC(=O)Nc4cccc(F)c4)[nH]n3)ncnc2c1", "note": "[Barasertib (AZD1152-HQPA)]", "values": [{"measurement": "scaled lipid accumulation score", "setting": "[3]", "value": "inactive: ≤ 0"}, {"measurement": "scaled lipid accumulation score", "setting": "[2]", "value": "inactive: ≤ 0"}]}
{"smiles": "O=C(CCC/C=C\\C[C@@H]1C(/C=C/[C@@H](O)COc2cccc(C(F)(F)F)c2)[C@H](O)C[C@@H]1O)NC(CO)CO", "note": "(some centres undefined) [Fluprostenol serinol amide]", "values": [{"measurement": "scaled lipid accumulation score", "setting": "[1]", "value": "inactive: ≤ 0"}]}
{"smiles": "NC(=O)CCCSc1nc(N)nc(-c2c(Cl)cc3c4c(cccc24)COC3)n1", "values": [{"measurement": "scaled lipid accumulation score", "setting": "[3]", "value": "active: 0.86"}, {"measurement": "scaled lipid accumulation score", "setting": "[2]", "value": "active: 0.886"}]}
{"smiles": "Brc1ccc([C@H]2CN3CCSC3=N2)cc1", "note": "[S(-)-p-Bromotetramisole oxalate]", "values": [{"measurement": "scaled lipid accumulation score", "setting": "[2]", "value": "inactive: 0.32"}]}
{"smiles": "C=CC[C@H](N)C(=O)O", "note": "[L-allylglycine]", "values": [{"measurement": "scaled lipid accumulation score", "setting": "[2]", "value": "inactive: 0.041"}]}
{"smiles": "C[C@@H]1NC(=O)NC1=O", "note": "[Methylhydantoin-5-(L)]", "values": [{"measurement": "scaled lipid accumulation score", "value": "inactive: ≤ 0"}]}
{"smiles": "O=C(O)c1ccccc1Nc1ccccc1", "note": "[N-Phenylanthranilic acid]", "values": [{"measurement": "scaled lipid accumulation score", "setting": "[2]", "value": "inactive: 0.204"}, {"measurement": "scaled lipid accumulation score", "setting": "library stock concentration: 23.5 mM", "value": "inactive: 0.084"}]}
{"smiles": "CN1CCCC(n2nc(Cc3ccc(Cl)cc3)c3ccccc3c2=O)CC1.Cl", "note": "(centres undefined) [Azelastine hydrochloride]", "values": [{"measurement": "scaled lipid accumulation score", "setting": "[4]", "value": "active: 0.978"}, {"measurement": "scaled lipid accumulation score", "setting": "[2]", "value": "active: 0.992"}]}
{"smiles": "Cc1cc(C(=O)Nc2cc(Nc3ccc4c(/C=C/c5ccccn5)n[nH]c4c3)ccc2F)n(C)n1", "values": [{"measurement": "scaled lipid accumulation score", "setting": "[6]", "value": "inactive: 0.035"}, {"measurement": "scaled lipid accumulation score", "setting": "[5]", "value": "inactive: 0.724"}]}
